In PubChem BioAssay AID1030 (National Center for Advancing Translational Sciences (NCATS), 2008):
Hit rate of the full screen: of about 220,000 compounds, about 16,000 (7.3%) were called active. This list was built around the results that the source calls inconclusive (neither active nor inactive); the mix of calls is not that of the screen. The call rests on the fitted dose curve; in most records, active means well fitted inhibition curve with a large enough effect (not every such curve was filed as active); inconclusive means small, poorly fitted or top-dose-only effect, or another doubt; inactive means no such curve, though single readings can be large or run the other way. Potencies of inconclusive entries are doubtful fits and often do not repeat.

These compounds were tested against Aldehyde dehydrogenase 1A1 (Homo sapiens) (UniProt P00352) (assay: qHTS Assay for Inhibitors of Aldehyde Dehydrogenase 1 (ALDH1A1)). Details: Purified ALDH1A1, NADH fluorescence, propionaldehyde substrate; series mostly up to 75.3 µM; activity, negative = inhibition: at the top concentration.
Potency means the concentration at half of the fitted maximal effect; tags describe the fitted curve by direction and shape.
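Wherever activity, negative = inhibition is given: plate controls were no enzyme wells and a reference inhibitor.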

Sequence of UniProt P00352 (P00352 whole entry, looked up): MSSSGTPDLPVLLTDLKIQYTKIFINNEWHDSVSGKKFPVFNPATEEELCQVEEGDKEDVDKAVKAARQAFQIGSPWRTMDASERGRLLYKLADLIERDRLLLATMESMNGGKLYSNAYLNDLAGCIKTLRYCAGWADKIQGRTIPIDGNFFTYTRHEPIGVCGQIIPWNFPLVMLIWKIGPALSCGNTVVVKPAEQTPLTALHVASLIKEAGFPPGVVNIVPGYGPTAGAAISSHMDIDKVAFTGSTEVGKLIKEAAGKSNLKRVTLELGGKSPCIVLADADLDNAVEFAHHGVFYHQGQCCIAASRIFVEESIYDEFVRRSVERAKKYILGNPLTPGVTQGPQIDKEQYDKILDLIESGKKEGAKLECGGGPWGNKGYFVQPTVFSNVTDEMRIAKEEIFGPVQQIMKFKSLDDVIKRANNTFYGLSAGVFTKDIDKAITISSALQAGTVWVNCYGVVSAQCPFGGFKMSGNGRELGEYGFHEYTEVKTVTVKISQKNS

Potency, active:
CCC(=O)Nc1ccc(NC(=O)CSc2nc3cc4c(cc3cc2C)CCC4)cc1 11.2 µM
O=C(c1ccco1)N1CCN(C(=O)C(Cc2ccccc2)NS(=O)(=O)c2cccs2)CC1 (stereo not given) 14.1 µM
Cc1c(CCOC(=O)c2cc([N+](=O)[O-])cc([N+](=O)[O-])c2)sc[n+]1CC(=O)c1ccc(Br)cc1 2.51 µM
COc1cc(NC(=O)CCN2CCN(Cc3ccccc3)CC2)cc(OC)c1 11.2 µM
CC[n+]1c(/C=C(\C)SC)sc2ccccc21 5.97 µM
CCCc1[nH][nH]c(=O)c1C(c1cccc(Cl)c1)C(C#N)C#N (stereo not given) 14.1 µM

Potency, inconclusive:
COc1cc(/C=C/C(=O)Nc2ccccc2C(F)(F)F)cc(OC)c1OC 39.8 µM [inhibitor, single point]
COc1ccccc1CNc1ncnc2ccc(-c3ccoc3)cc12 35.5 µM [inhibitor, single point]
Cc1ccc(S(=O)(=O)NC2=C(N3CCN(c4ccccc4F)CC3)C(=O)c3ccccc3C2=O)cc1 14.1 µM [inhibitor, partial curve]
O=C(Cn1cnc2cc([N+](=O)[O-])ccc2c1=O)Nc1ccc2c(c1)CCC2 17.8 µM [inhibitor, partial curve]
Nc1nc(SCC(=O)Nc2ccccc2C(F)(F)F)[nH]c(=O)c1-c1ccccc1 39.8 µM [inhibitor, single point]
CCOC(=O)N1CCN(C(=O)C2CCC(CNS(=O)(=O)c3ccccc3)CC2)CC1 (stereo not given) 39.8 µM [inhibitor, single point]
CCOC(=O)C1CCCN(c2c(C(=O)c3ccccc3)cnc3ccc(OC)cc23)C1 (stereo not given) 28.2 µM [inhibitor, single point]
COc1ccccc1NC(=O)COC(=O)/C=C/c1ccc2c(c1)OCO2 39.8 µM [inhibitor, single point]
Cc1ccc(CNc2cc(-c3nn4c(C)nnc4s3)ccc2C)s1 28.2 µM [inhibitor, single point]
COc1ccccc1CN=c1c([N+](=O)[O-])nn(-c2ccc3c(c2)OCCO3)n1O 15.8 µM [inhibitor, partial curve]
COc1cccc(OC)c1C(=O)NC(=S)Nc1ccc2oc(=O)ccc2c1 31.6 µM [inhibitor, single point]
O=C(c1ccc([N+](=O)[O-])cc1)[C@@H](Br)[C@@H](Br)c1ccnc2ccccc12 4.47 µM [inhibitor, partial curve]
COc1ccc(NC(=O)CN2CCN(CC(=O)Nc3ccc(OC)c(OC)c3)CC2)cc1 35.5 µM [inhibitor, single point]
Cc1ccc(S(=O)(=O)CC(O)COc2ccc(F)cc2Cl)c(C)c1 (stereo not given) 11.2 µM [inhibitor, partial curve]
CCN(CC)CCn1c(-c2ccccc2)nc2c(N3CCOCC3)nc(C)nc21 35.5 µM [inhibitor, single point]
Cc1cc(NC(=O)CSc2ccc3nnc(-c4ccccc4)n3n2)no1 39.8 µM [inhibitor, single point]
O=C(O)C1CSCN1S(=O)(=O)c1cccc2nsnc12 (stereo not given) 25.1 µM [inhibitor, single point]
CCSc1ccccc1C(=O)Nc1ccc([N+](=O)[O-])cc1OC 31.6 µM [inhibitor, single point]
O=C(Nc1ccncc1)c1cccs1 39.8 µM [inhibitor, single point]
COc1ccc(OC(=O)c2cccc([N+](=O)[O-])c2)c(C(=O)/C=C/c2cccs2)c1 10 µM [inhibitor, partial curve]
N#Cc1c(NC(=O)c2ccccc2Cl)n(Cc2ccccc2)c2nc3ccccc3nc12 31.6 µM [inhibitor, partial curve]
CCOc1ccc(S(=O)(=O)N(CC(=O)O)c2ccccc2)cc1 39.8 µM [inhibitor, single point]
COc1ccc(S(=O)(=O)Nc2nc3n(n2)C(c2ccc(Cl)cc2)CC(=O)N3)cc1 (stereo not given) 11.2 µM [inhibitor, partial curve]
Cc1ccc(NC(=O)CSc2nnc(-c3ccccc3Br)o2)cc1C 25.1 µM [inhibitor, single point]
CN(C)CCn1c(=O)n(Cc2ccco2)c(=O)c2c3c(sc21)CCCCC3 39.8 µM [inhibitor, single point]
O=C1NC2(CCCC2)C(=O)N1CCS(=O)(=O)Oc1ccccc1 31.6 µM [inhibitor, single point]
CC(C)C(=O)Nc1c(-c2cccs2)c(=O)c2ccccc2n1C 31.6 µM [inhibitor, single point]
N#CC1=C(N)N2C(=C(C#N)C13CCCC3)Nc1ccccc12 3.16 µM [inhibitor, partial curve]
O=S(=O)(Nc1ccc(N2CCOCC2)cc1)c1ccc(F)cc1 12.6 µM [inhibitor, partial curve]
Cc1nc2ccccc2n2c(-c3ccccc3)c3c(=O)n(C)c(=O)n(C)c3c12 44.7 µM [inhibitor, single point]
CN(C(=O)c1ccc2c(Cl)c3c(nc2c1)CCC3)c1ccccc1 17.8 µM [inhibitor, partial curve, poor fit]
CCc1ccc(NC2=NCC(c3ccccc3)S2)cc1 (stereo not given) 39.8 µM [inhibitor, single point]
NC(=O)C1CCN(c2ncnc3c2c(-c2ccccc2)cn3-c2ccccc2)CC1 25.1 µM [inhibitor, partial curve]
Cc1ccccc1Nc1nc(N)nc(CN2CCN(c3ccccn3)CC2)n1 37.7 µM [inhibitor, single point]
CC(=O)Nc1nc(COc2ccc3ccccc3c2)cs1 17.8 µM [inhibitor, partial curve]
COc1ccc(S(=O)(=O)N(CCC(=O)O)Cc2ccccc2)cc1 28.2 µM [inhibitor, single point]
CCCNS(=O)(=O)c1ccc(CCC(=O)NCc2ccc3c(c2)OCO3)cc1 28.2 µM [inhibitor, single point]
Cc1cc(Cl)cc(Cl)c1OCC(=O)NCc1ccco1 31.6 µM [inhibitor, single point]
CC1(C)C2CCC1(CS(=O)(=O)Nc1ccc(S(=O)(=O)N3CCCC3)cc1)C(=O)C2 (stereo not given) 39.8 µM [inhibitor, single point]
CC(C)(C)c1ccc(S(=O)(=O)NCCOCC(F)(F)C(F)F)cc1 25.1 µM [inhibitor, partial curve]
COc1ccc(OC)c(NC(=O)C2CCN(c3cc(-c4ccccc4)nc4ncnn34)CC2)c1 35.5 µM [inhibitor, single point]
O=C(Nc1cnc2ccccc2c1)c1cccc(-n2cnnn2)c1 37.7 µM [inhibitor, single point]
Cc1ccc(-c2cc(C(=O)Nc3nccs3)c3ccccc3n2)o1 7.94 µM [inhibitor, partial curve]
Fc1ccc(C(c2nnnn2Cc2cccs2)N2CCN(C3CCCCC3)CC2)cc1 (stereo not given) 22.4 µM [inhibitor, single point]
COc1cc(C(=O)OCC(=O)N2CCCCC2C)ccc1OCc1c(C)noc1C (stereo not given) 44.7 µM [inhibitor, single point]

activity, negative = inhibition, inactive:
COC(=O)N1CCC2(CCN(C(=O)Nc3ccccc3)CC2)CC1 8.12%
Cc1c(C(=O)O)c2cc(O)ccc2n1-c1ccccc1 3.2%
CN(CC(=O)Nc1ccc(C(N)=O)cc1)CC(=O)Nc1ccccc1Cl -1.92%
COc1ccc(-n2c(SCC(=O)OC(C)C)nnc2-c2ccccn2)cc1 2.12%
O=C(N/N=C/c1ccc2c(c1)OCO2)c1cc(-c2ccc(F)cc2)nc2ccccc12 -7.22%
CSc1nnc([C@@H](NC(=O)OC(C)(C)C)C(C)C)o1 0.22%
CCCc1[nH]nc2c1C(c1ccsc1)C(C#N)=C(N)O2 (stereo not given) -12%
Cc1ccc(NC(=O)Nc2nc(-c3ccc(C)s3)cs2)cc1 25.1%
COc1ccccc1NS(=O)(=O)c1cc(C(=O)NCCC(C)C)ccc1F 4.9%
O=C(O)CCC(=O)CCC(=O)c1ccc(Cl)cc1 -1.13%
c1ccc2sc(NC3=NCN(CC4CCCO4)CN3)nc2c1 (stereo not given) 5.82%
O=C(CNc1cccc(C(F)(F)F)c1)N/N=C/c1ccccc1C(=O)O 6.34%
CC(C)c1ccc(NC(=S)NNC(=O)c2cccnc2)cc1 -68.9%
CCCOc1ccc(NC(=O)C2CC(=O)N(C(C)C)C2)cc1 (stereo not given) -1.92%
CC1CCCCN1C(=O)CSc1nc(N)cc(=O)[nH]1 (stereo not given) -6.87%
C=CCn1c(SCC(=O)NCCC2=CCCCC2)nc2ccc(Cl)cc2c1=O -0.266%
O=C(O)c1ccc(S(=O)(=O)c2ccc3c(c2)C(=O)N(NC(=O)c2ccccc2)C3=O)cc1 -4.46%
COCCn1c(C)cc(C(=O)CSc2cc(C)c3ccc(OC)cc3n2)c1C 3.62%
CCO[C@H]1OC(C(=O)N2CCOCC2)=C[C@@H](C2CC2)[C@@H]1CCCO 4.26%
